# Among all 410,000 compounds or so, about 5,000 (1.2%) were called active. Inconclusive means that the source gave no clear call. Such entries were picked first, then a sample of the others. The call rests on the fitted dose curve; in most records, active means well fitted inhibition curve with a large enough effect; inconclusive means small, poorly fitted or top-dose-only effect; inactive means no such curve, though single readings can be large or run the other way. Where the call is inconclusive, the potency comes from a doubtful curve fit.
# Assay: qHTS for Inhibitors of TGF-b; further: nearly all actives have a fitted effect of over 65% in size
# Conditions: HepG2 CAGA-GFP TGF-b/SMAD3 reporter, GFP fluorescence, 18 h, TGF-beta stimulated, 500 pg/mL final; series mostly up to 46.1 µM
# Summary of the method: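 Using HEPG2 CAGA-GFP reporter cells at 1000 cells/well, we pinned test compounds, stimulated with recombinant TGF-beta (500 pg/mL final) and measured total well GFP after 18 h.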
# Potency means the concentration at half of the fitted maximal effect; tags describe the fitted curve by direction and shape.
row,SMILES,Potency
1,CC1(C)c2cc(Cl)ccc2-n2c1cc(O)c(-c1ccccc1)c2=O,inactive
2,CC(=O)CCn1c(=O)n(CCC(C)=O)c(=O)n(CCC(C)=O)c1=O,inactive
3,COC(=O)CCC(=O)N1CN2CN(C(=O)CCC(=O)OC)CC([N+](=O)[O-])(C2)C1,inactive
4,COc1ccc(C2C(=O)N(C3CCCCC3)CC(=O)N2Cc2ccccc2Cl)cc1OC (stereo not drawn),inactive
5,CCN(CC(=O)Nc1cc(C)on1)CC(=O)Nc1ccccc1C(F)(F)F,"inconclusive: 35.5 µM [inhibitor, single point]"
6,COc1ccccc1NC(=O)N1CCN(c2ccnc3cc(Cl)ccc23)CC1,inactive
7,Cc1c(NC(=O)C(C)OC(=O)c2ccccc2O)c(=O)n(-c2ccccc2)n1C (stereo not drawn),"inconclusive: 22.4 µM [inhibitor, single point]"
8,Cc1ccc(N(CC(=O)N2CCN(c3ccc(Cl)cc3)CC2)S(=O)(=O)c2c(C)noc2C)cc1,"inconclusive: 6.31 µM [inhibitor, single point]"
9,O=C(NCc1cccs1)C1CCN(C(=O)N2CCOc3ccccc32)CC1,inactive
10,COc1ccc(/C=N/Nc2ncc(C(F)(F)F)cc2Cl)c(OC)c1OC,inactive
11,CCN1CCN(C(=O)/C=C/c2ccc(C(C)C)cc2)CC1,inactive
12,O=C(Nc1c(-c2ccccc2)nc2ccccn12)c1ccc(Br)cc1,"inconclusive: 25.1 µM [inhibitor, single point]"
13,Cc1ccc(-n2c(CNc3ccc(C)c(Cl)c3)n[nH]c2=S)cc1,"inconclusive: 22.4 µM [inhibitor, single point]"
14,CCOC(=O)C1CCCN(C(=O)CCn2nc(-c3ccccc3)ccc2=O)C1 (stereo not drawn),"inconclusive: 0.112 µM [inhibitor, full curve, poor fit]"
15,COc1ccc2[nH]c(=O)c(CN(Cc3ccc4c(c3)OCO4)C(C)=O)cc2c1,"inconclusive: 0.398 µM [inhibitor, partial curve, poor fit]"
16,O=C(NCCc1ccccc1F)C1CC(=O)N(c2ccc3c(c2)OCCO3)C1 (stereo not drawn),inactive
17,Cc1ccc(N2CCN(C(=O)c3ccc4c(Cl)c5c(nc4c3)CCCC5)CC2)c(C)c1,"inconclusive: 3.16 µM [inhibitor, partial curve, poor fit]"
18,CN(C)c1cccc(N(C)C)c1CNC(=O)NC(=O)c1c(F)cccc1F,"inconclusive: 35.5 µM [inhibitor, single point]"
19,Cc1ccc(OCC(=O)Nc2ccc(O)c(-c3nc4ccccc4o3)c2)cc1,"inconclusive: 3.55 µM [inhibitor, single point]"
20,Cc1noc(C)c1S(=O)(=O)N(CC(=O)NCc1ccccc1Cl)c1ccc(C(C)C)cc1,"inconclusive: 25.1 µM [inhibitor, single point]"
21,COc1cc(SC#N)ccc1N=Cc1c(C)[nH]n(-c2ccc(C)cc2)c1=O,active: 10 µM
22,NS(=O)(=O)c1ccc(N/N=C2/CCCCC2C2CCCCC2)c([N+](=O)[O-])c1 (stereo not drawn),"inconclusive: 6.31 µM [inhibitor, full curve, poor fit]"
23,CCOc1ccc(C(=O)Nc2ccc(S(=O)(=O)N3CCCCC3c3cccnc3)cc2)cc1 (stereo not drawn),"inconclusive: 12.6 µM [inhibitor, single point]"

row,SMILES,Potency
1,CC(=O)c1sc(N)c(C(=O)OC(C)C)c1C,"inconclusive: 35.5 µM [inhibitor, partial curve, poor fit]"
2,O=C(NCCC(=O)N1CCN(c2ccccc2O)CC1)c1ccc(Br)cc1,inactive
3,CC1CCN(c2nnc(-c3ccccc3)c3ccccc23)CC1,inactive
4,Cc1ccc(C)c(S(=O)(=O)NCC(c2ccco2)S(=O)(=O)c2ccc(F)cc2)c1 (stereo not drawn),active: 11.2 µM
5,O=C1/C(=C\c2cccc(O)c2O)SC(=S)N1Cc1ccccc1,"inconclusive: 25.1 µM [inhibitor, single point]"
6,Cc1ccc(-c2csc(C(O)c3ccc(F)c(F)c3)n2)cc1C (stereo not drawn),"inconclusive: 8.91 µM [inhibitor, partial curve]"
7,Cc1ccc(S(=O)(=O)N2CCOCC2)cc1NC(=O)CSc1nnc(COc2ccccc2F)n1N,"inconclusive: 35.5 µM [inhibitor, single point]"
8,CC(C)Cc1ccc(-c2cc3nc(NCCCn4ccnc4)ccn3n2)cc1,"inconclusive: 12.6 µM [inhibitor, partial curve, poor fit]"
9,O=C(c1cc(-c2ccncc2)nc2ccccc12)N1CCCC(C(F)(F)F)C1 (stereo not drawn),"inconclusive: 35.5 µM [inhibitor, single point]"
10,COCCCNC(=O)CCn1c(=O)c2ccccc2n(CC(=O)Nc2c(C)cccc2C)c1=O,"inconclusive: 5.62 µM [inhibitor, single point]"
11,CS(=O)(=O)N1CCCC(C(=O)Nc2ccccc2)C1 (stereo not drawn),inactive
12,CCOc1ccc(NS(=O)(=O)c2ccc(C(=O)N3CCCC(C)C3)cc2)cc1 (stereo not drawn),inactive
13,O=C(NCc1ccc2c(c1)OCO2)c1ccc2c(c1)N(Cc1ccc(F)cc1)C(=O)c1ccccc1S2=O (stereo not drawn),"inconclusive: 12.6 µM [inhibitor, partial curve, poor fit]"
14,O=C(Cn1ccccc1=S)c1ccc(Cl)c(Cl)c1,inactive
15,CCC(CC)=NNC(=O)c1ccccc1OCc1ccc(F)cc1,"inconclusive: 2.51 µM [inhibitor, partial curve]"
16,O=C(Nc1cccc(S(=O)(=O)Nc2ccccc2Cl)c1)c1ccc(Cl)nc1,active: 12.6 µM
17,CCC(CO)Nc1ncnc2c1cnn2-c1ccc(C)cc1 (stereo not drawn),inactive
18,O=C(Nc1ccc(N2CCN(C(=O)c3ccccc3)CC2)cc1)c1ccc2c(c1)OCCO2,"inconclusive: 6.31 µM [inhibitor, single point]"
19,CCN(CC)c1nc(N2CCN(C)CC2)nc2ccccc12,"inconclusive: 20 µM [inhibitor, partial curve, poor fit]"
20,CCOCCCn1c(SCC(=O)Nc2cccc(OC)c2)nc2ccccc2c1=O,inactive
21,NS(=O)(=O)c1ccc(CCNc2ccn3nc(-c4ccc(OCCN5CCOCC5)cc4)cc3n2)cc1,inactive
22,CN(C)/C(CN1CCCCC1)=C1\N=C(c2ccccc2)OC1=O,"inconclusive: 3.98 µM [inhibitor, partial curve, poor fit]"
23,COc1cc(-c2nnc(SCC(=O)OC3CCCCC3)o2)cc(OC)c1OC,"inconclusive: 1.12 µM [inhibitor, partial curve, poor fit]"

row,SMILES,Potency
1,COc1ccccc1NC(=O)C1CCN(S(=O)(=O)c2ccc3c(c2)oc(=O)n3C)CC1,inactive
2,C/C=C/c1ccc(OCCCNC)c(OC)c1,"inconclusive: 3.16 µM [inhibitor, single point]"
3,CC(=Cc1ccccc1)C=C1SC(=S)N(CCCC(=O)Nc2ccc(C(=O)O)cc2)C1=O,"inconclusive: 25.1 µM [inhibitor, single point]"
4,CCO[C@@H]1OC(C(=O)N2CCN(Cc3ccccc3)CC2)=C[C@H](c2coc3ccccc3c2=O)[C@H]1CCCO,"inconclusive: 3.55 µM [inhibitor, single point]"
5,CC(C)Oc1ccc(C(=O)CCN2CCOCC2)cc1,"inconclusive: 3.55 µM [inhibitor, full curve, poor fit]"
6,COc1ccc2c(c1)C1NC(=S)NC(C)(O2)C1C(=O)Nc1ccc(Cl)cc1 (stereo not drawn),"inconclusive: 14.1 µM [inhibitor, single point]"
7,Cn1cc(C(C[N+](=O)[O-])c2ccccc2)c2ccccc21 (stereo not drawn),"inconclusive: 12.6 µM [inhibitor, partial curve, poor fit]"
8,Nc1nc(Br)c2c(F)cccc2c1-c1ccc(F)cc1,"inconclusive: 7.08 µM [inhibitor, partial curve, poor fit]"
9,COc1ccc(/C=C/C(=O)NC(=S)NNC(=O)c2cccnc2)cc1,inactive
10,CCCCN(CCCC)CCNC(=O)CN1C(=O)CSc2ccc(S(=O)(=O)N3CCCCC3)cc21,"inconclusive: 6.31 µM [inhibitor, single point]"
11,Cc1cccc(CN2C(=O)CC(c3ccc(Cl)cc3)c3c(C)nn(-c4nc(C)cc(C)n4)c32)c1 (stereo not drawn),"inconclusive: 8.91 µM [inhibitor, partial curve, poor fit]"
12,COc1cc2c(cc1OC)C(C)N(C(=O)c1cc3c(s1)-c1ccccc1OC3)CC2 (stereo not drawn),active: 11.2 µM
13,COc1ccc(CN2CCC(C(=O)NC(c3ccc4c(c3)OCO4)c3ccccn3)CC2)cc1 (stereo not drawn),inactive
14,NC(Cc1ccc(C(F)(F)F)cc1)c1csc(NC(=O)Nc2ccccc2Cl)n1 (stereo not drawn),"inconclusive: 12.6 µM [inhibitor, partial curve, poor fit]"
15,Cc1cc(O)c(C2=Nc3ccccc3SC(c3ccc(Cl)cc3)C2)c(=O)o1 (stereo not drawn),"inconclusive: 3.98 µM [inhibitor, single point]"
16,CCc1cccc(C)c1N=Cc1c(O)c2ccccc2oc1=O,"inconclusive: 15.8 µM [inhibitor, partial curve, poor fit]"
17,CCN(CCCNC(=O)c1cc2c(=O)[nH]c3ccc(C)cc3c2s1)c1ccc(C)cc1,inactive
18,CC(=O)OCC(=O)C1(O)CCC2C3CC(F)C4=CC(=O)CCC4(C)C3C(=O)CC21C (stereo not drawn),inactive
19,NS(=O)(=O)c1ccc(N2N=C(c3ccccc3)CC2c2ccc(Br)cc2)cc1 (stereo not drawn),"inconclusive: 28.2 µM [inhibitor, single point]"
20,COc1cccc(C(=O)N/N=C(\C)CC(=O)Nc2ccc(N(C)C)cc2)c1,"inconclusive: 35.5 µM [inhibitor, single point]"
21,COc1ccc(CCNC(=O)c2cc(-c3ccccc3)c(N3CCOCC3)s2)cc1OC,inactive
22,CC(=O)c1ccc(N2CCN(C(=S)Nc3ccc(Oc4ccccc4)cc3)CC2)cc1,"inconclusive: 7.94 µM [inhibitor, partial curve, poor fit]"
